The results in this text go back to paper PMC11533862 (Science (New York, N.Y.), 2019).

The data set deals with the molecule itself. The experiment in a line: cryo-EM structure.

B1: GluA2 (AMPA-type glutamate receptor pore-forming subunit), tetramer (receptor)
chain: not shown
modifications: glycosylation at N241
For B1, the stoichiometry N (commonly a count of units in the complex or per binding partner) worked out at 4.
